From the supplement of paper PMC12230231 come the findings set out here.

± gives the standard deviation of the averaged measurements. Restriction of a single-cycle SIVsab GFP reporter by TRIM5α v1-loop variants in CRFK cells. Human variants: read share among cells still uninfected after two challenges over input, higher = gained restriction. Rhesus variants: share among infected cells over input, higher = lost restriction. Reporter dose not given per row. No active / inactive call per row; the paper calls a change when both replicates lie above its controls (mean + 2 SD of stop or wild-type variants, or the top frameshift score). Residues outside the varied loop are taken from Swiss-Prot. The paper reads the human single-substitution scores as noise; they and the rhesus combinations repeat poorly (rank correlation 0.3 to 0.4), indel scores repeat only for the top variants, rhesus substitutions well (0.9).

This series deals with SIVsab (simian immunodeficiency virus of sabaeus monkeys), single-cycle GFP reporter, in CRFK cells. Briefly: enrichment among uninfected cells over input (fold); higher = stronger restriction. The conditions noted are these: library: insertions and deletions. The protocol: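 Pools of CRFK cells expressing variants of the TRIM5α v1 loop were challenged with the single-cycle reporter, sorted by GFP and sequenced; mean of two replicates.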
“MASGILVNVKEEVTCPICLELLTQPLSLDCGHSFCQACLTANHKKSMLDKGESSCPVCRISYQPENIRPNRHVANIVEKLREVKLSPEGQKVDHCARHGEKLLLFCQEDGKVICWLCERSQEHRGHHTFLTEEVAREYQVKLQAALEMLRQKQQEAEELEADIREEKASWKTQIQYDKTNVLADFEQLRDILDWEESNELQNLEKEEEDILKSLTNSETEMVQQTQSLRELISDLEHRLQGSVMELLQGVDGVIKRTENVTLKKPETFPKNQRRVFRAPDLKGMLEVFRELTDVRRYWVDVTVAPNNISCAVISEDKRQVSSPKPQIIYGARGTRYQTFVTFVNFNYCTGILGSQSITSGKHYWEVDVSKKTAWILGVCAGFQPDAMCNIEKNENYQPKYGYWVIGLEEGVKCSAFQDSSFHTPSVPFIVPLSVIICPDRVGVFLDYEACTVSFFNITNHGFLIYKFSHCSFSQPVFPYLNPRKCGVPMTLCSPSS [human TRIM5α, 3-codon duplication at 338]” returned an enrichment of 0.546 ± 0.39.
“MASGILVNVKEEVTCPICLELLTQPLSLDCGHSFCQACLTANHKKSMLDKGESSCPVCRISYQPENIRPNRHVANIVEKLREVKLSPEGQKVDHCARHGEKLLLFCQEDGKVICWLCERSQEHRGHHTFLTEEVAREYQVKLQAALEMLRQKQQEAEELEADIREEKASWKTQIQYDKTNVLADFEQLRDILDWEESNELQNLEKEEEDILKSLTNSETEMVQQTQSLRELISDLEHRLQGSVMELLQGVDGVIKRTENVTLKKPETFPKNQRRVFRAPDLKGMLEVFRELTDVRRYWVDVTVAPNNISCAVISEDKRQVSSPKPQIIYGARGTRYQTFVTGILGSQSITSGKHYWEVDVSKKTAWILGVCAGFQPDAMCNIEKNENYQPKYGYWVIGLEEGVKCSAFQDSSFHTPSVPFIVPLSVIICPDRVGVFLDYEACTVSFFNITNHGFLIYKFSHCSFSQPVFPYLNPRKCGVPMTLCSPSS [human TRIM5α, 5-codon deletion at 341]” gave an enrichment of 1.89 ± 2.
In turn, “MASGILVNVKEEVTCPICLELLTQPLSLDCGHSFCQACLTANHKKSMLDKGESSCPVCRISYQPENIRPNRHVANIVEKLREVKLSPEGQKVDHCARHGEKLLLFCQEDGKVICWLCERSQEHRGHHTFLTEEVAREYQVKLQAALEMLRQKQQEAEELEADIREEKASWKTQIQYDKTNVLADFEQLRDILDWEESNELQNLEKEEEDILKSLTNSETEMVQQTQSLRELISDLEHRLQGSVMELLQGVDGVIKRTENVTLKKPETFPKNQRRVFRAPDLKGMLEVFRELTDVRRYWVDVTVAPNNISCAVISEDKRQVSSPKPQIIYGARGTRYQTFVTRYQTFVNFNYCTGILGSQSITSGKHYWEVDVSKKTAWILGVCAGFQPDAMCNIEKNENYQPKYGYWVIGLEEGVKCSAFQDSSFHTPSVPFIVPLSVIICPDRVGVFLDYEACTVSFFNITNHGFLIYKFSHCSFSQPVFPYLNPRKCGVPMTLCSPSS [human TRIM5α, 7-codon duplication at 334]” registered an enrichment of 0.00179 ± 0.0015.
Sequence “MASGILVNVKEEVTCPICLELLTQPLSLDCGHSFCQACLTANHKKSMLDKGESSCPVCRISYQPENIRPNRHVANIVEKLREVKLSPEGQKVDHCARHGEKLLLFCQEDGKVICWLCERSQEHRGHHTFLTEEVAREYQVKLQAALEMLRQKQQEAEELEADIREEKASWKTQIQYDKTNVLADFEQLRDILDWEESNELQNLEKEEEDILKSLTNSETEMVQQTQSLRELISDLEHRLQGSVMELLQGVDGVIKRTENVTLKKPETFPKNQRRVFRAPDLKGMLEVFRELTDVRRYWVDVTVAPNNISCAVISEDKRQVSSPKPQIIYGARGTRYQTFVVNFNYCTGILGSQSITSGKHYWEVDVSKKTAWILGVCAGFQPDAMCNIEKNENYQPKYGYWVIGLEEGVKCSAFQDSSFHTPSVPFIVPLSVIICPDRVGVFLDYEACTVSFFNITNHGFLIYKFSHCSFSQPVFPYLNPRKCGVPMTLCSPSS [human TRIM5α, 1-codon duplication at 340]” came in with an enrichment of 2.14 ± 2.3.
In the case of “MASGILVNVKEEVTCPICLELLTQPLSLDCGHSFCQACLTANHKKSMLDKGESSCPVCRISYQPENIRPNRHVANIVEKLREVKLSPEGQKVDHCARHGEKLLLFCQEDGKVICWLCERSQEHRGHHTFLTEEVAREYQVKLQAALEMLRQKQQEAEELEADIREEKASWKTQIQYDKTNVLADFEQLRDILDWEESNELQNLEKEEEDILKSLTNSETEMVQQTQSLRELISDLEHRLQGSVMELLQGVDGVIKRTENVTLKKPETFPKNQRRVFRAPDLKGMLEVFRELTDVRRYWVDVTVAPNNISCAVISEDKRQVSSPKPQIIYGARGTRYQTFVYCTGILGSQSITSGKHYWEVDVSKKTAWILGVCAGFQPDAMCNIEKNENYQPKYGYWVIGLEEGVKCSAFQDSSFHTPSVPFIVPLSVIICPDRVGVFLDYEACTVSFFNITNHGFLIYKFSHCSFSQPVFPYLNPRKCGVPMTLCSPSS [human TRIM5α, 3-codon deletion at 341]”, the enrichment worked out at 0.56 ± 0.56.
As to “MASGILVNVKEEVTCPICLELLTQPLSLDCGHSFCQACLTANHKKSMLDKGESSCPVCRISYQPENIRPNRHVANIVEKLREVKLSPEGQKVDHCARHGEKLLLFCQEDGKVICWLCERSQEHRGHHTFLTEEVAREYQVKLQAALEMLRQKQQEAEELEADIREEKASWKTQIQYDKTNVLADFEQLRDILDWEESNELQNLEKEEEDILKSLTNSETEMVQQTQSLRELISDLEHRLQGSVMELLQGVDGVIKRTENVTLKKPETFPKNQRRVFRAPDLKGMLEVFRELTDVRRYWVDVTVAPNNISCAVISEDKRQVSSPKPQIIYGARGTRYQTFVYQTFVNFNYCTGILGSQSITSGKHYWEVDVSKKTAWILGVCAGFQPDAMCNIEKNENYQPKYGYWVIGLEEGVKCSAFQDSSFHTPSVPFIVPLSVIICPDRVGVFLDYEACTVSFFNITNHGFLIYKFSHCSFSQPVFPYLNPRKCGVPMTLCSPSS [human TRIM5α, 5-codon duplication at 336]”, the enrichment stood at 0.485 ± 0.29.
On to “MASGILVNVKEEVTCPICLELLTQPLSLDCGHSFCQACLTANHKKSMLDKGESSCPVCRISYQPENIRPNRHVANIVEKLREVKLSPEGQKVDHCARHGEKLLLFCQEDGKVICWLCERSQEHRGHHTFLTEEVAREYQVKLQAALEMLRQKQQEAEELEADIREEKASWKTQIQYDKTNVLADFEQLRDILDWEESNELQNLEKEEEDILKSLTNSETEMVQQTQSLRELISDLEHRLQGSVMELLQGVDGVIKRTENVTLKKPETFPKNQRRVFRAPDLKGMLEVFRELTDVRRYWVDVTVAPNNISCAVISEDKRQVSSPKPQIIYGARGTRYQTFYCTGILGSQSITSGKHYWEVDVSKKTAWILGVCAGFQPDAMCNIEKNENYQPKYGYWVIGLEEGVKCSAFQDSSFHTPSVPFIVPLSVIICPDRVGVFLDYEACTVSFFNITNHGFLIYKFSHCSFSQPVFPYLNPRKCGVPMTLCSPSS [human TRIM5α, 4-codon deletion at 340]”, for which the enrichment came out at 2.23 ± 1.9.
Then “MASGILVNVKEEVTCPICLELLTQPLSLDCGHSFCQACLTANHKKSMLDKGESSCPVCRISYQPENIRPNRHVANIVEKLREVKLSPEGQKVDHCARHGEKLLLFCQEDGKVICWLCERSQEHRGHHTFLTEEVAREYQVKLQAALEMLRQKQQEAEELEADIREEKASWKTQIQYDKTNVLADFEQLRDILDWEESNELQNLEKEEEDILKSLTNSETEMVQQTQSLRELISDLEHRLQGSVMELLQGVDGVIKRTENVTLKKPETFPKNQRRVFRAPDLKGMLEVFRELTDVRRYWVDVTVAPNNISCAVISEDKRQVSSPKPQIIYGARGTRYQTFYQTFVNFNYCTGILGSQSITSGKHYWEVDVSKKTAWILGVCAGFQPDAMCNIEKNENYQPKYGYWVIGLEEGVKCSAFQDSSFHTPSVPFIVPLSVIICPDRVGVFLDYEACTVSFFNITNHGFLIYKFSHCSFSQPVFPYLNPRKCGVPMTLCSPSS [human TRIM5α, 4-codon duplication at 336]”, with 0.429 ± 0.24.
“MASGILVNVKEEVTCPICLELLTQPLSLDCGHSFCQACLTANHKKSMLDKGESSCPVCRISYQPENIRPNRHVANIVEKLREVKLSPEGQKVDHCARHGEKLLLFCQEDGKVICWLCERSQEHRGHHTFLTEEVAREYQVKLQAALEMLRQKQQEAEELEADIREEKASWKTQIQYDKTNVLADFEQLRDILDWEESNELQNLEKEEEDILKSLTNSETEMVQQTQSLRELISDLEHRLQGSVMELLQGVDGVIKRTENVTLKKPETFPKNQRRVFRAPDLKGMLEVFRELTDVRRYWVDVTVAPNNISCAVISEDKRQVSSPKPQIIYGARGTRYQTGARGTRYQTFVNFNYCTGILGSQSITSGKHYWEVDVSKKTAWILGVCAGFQPDAMCNIEKNENYQPKYGYWVIGLEEGVKCSAFQDSSFHTPSVPFIVPLSVIICPDRVGVFLDYEACTVSFFNITNHGFLIYKFSHCSFSQPVFPYLNPRKCGVPMTLCSPSS [human TRIM5α, 9-codon duplication at 330]” had an enrichment of 0.304 ± 0.21.
Regarding “MASGILVNVKEEVTCPICLELLTQPLSLDCGHSFCQACLTANHKKSMLDKGESSCPVCRISYQPENIRPNRHVANIVEKLREVKLSPEGQKVDHCARHGEKLLLFCQEDGKVICWLCERSQEHRGHHTFLTEEVAREYQVKLQAALEMLRQKQQEAEELEADIREEKASWKTQIQYDKTNVLADFEQLRDILDWEESNELQNLEKEEEDILKSLTNSETEMVQQTQSLRELISDLEHRLQGSVMELLQGVDGVIKRTENVTLKKPETFPKNQRRVFRAPDLKGMLEVFRELTDVRRYWVDVTVAPNNISCAVISEDKRQVSSPKPQIIYGARGTRYQTGILGSQSITSGKHYWEVDVSKKTAWILGVCAGFQPDAMCNIEKNENYQPKYGYWVIGLEEGVKCSAFQDSSFHTPSVPFIVPLSVIICPDRVGVFLDYEACTVSFFNITNHGFLIYKFSHCSFSQPVFPYLNPRKCGVPMTLCSPSS [human TRIM5α, 8-codon deletion at 338]”, the enrichment is 0.922 ± 0.48.
The sequence “MASGILVNVKEEVTCPICLELLTQPLSLDCGHSFCQACLTANHKKSMLDKGESSCPVCRISYQPENIRPNRHVANIVEKLREVKLSPEGQKVDHCARHGEKLLLFCQEDGKVICWLCERSQEHRGHHTFLTEEVAREYQVKLQAALEMLRQKQQEAEELEADIREEKASWKTQIQYDKTNVLADFEQLRDILDWEESNELQNLEKEEEDILKSLTNSETEMVQQTQSLRELISDLEHRLQGSVMELLQGVDGVIKRTENVTLKKPETFPKNQRRVFRAPDLKGMLEVFRELTDVRRYWVDVTVAPNNISCAVISEDKRQVSSPKPQIIYGARGTRYQTGILGSQSITSGKHYWEVDVSKKTAWILGVCAGFQPDAMCNIEKNENYQPKYGYWVIGLEEGVKCSAFQDSSFHTPSVPFIVPLSVIICPDRVGVFLDYEACTVSFFNITNHGFLIYKFSHCSFSQPVFPYLNPRKCGVPMTLCSPSS [human TRIM5α, 8-codon deletion at 339]” gave an enrichment of 0.844 ± 0.34.
As for “MASGILVNVKEEVTCPICLELLTQPLSLDCGHSFCQACLTANHKKSMLDKGESSCPVCRISYQPENIRPNRHVANIVEKLREVKLSPEGQKVDHCARHGEKLLLFCQEDGKVICWLCERSQEHRGHHTFLTEEVAREYQVKLQAALEMLRQKQQEAEELEADIREEKASWKTQIQYDKTNVLADFEQLRDILDWEESNELQNLEKEEEDILKSLTNSETEMVQQTQSLRELISDLEHRLQGSVMELLQGVDGVIKRTENVTLKKPETFPKNQRRVFRAPDLKGMLEVFRELTDVRRYWVDVTVAPNNISCAVISEDKRQVSSPKPQIIYGARGTRYQTGTRYQTFVNFNYCTGILGSQSITSGKHYWEVDVSKKTAWILGVCAGFQPDAMCNIEKNENYQPKYGYWVIGLEEGVKCSAFQDSSFHTPSVPFIVPLSVIICPDRVGVFLDYEACTVSFFNITNHGFLIYKFSHCSFSQPVFPYLNPRKCGVPMTLCSPSS [human TRIM5α, 6-codon duplication at 333]”, the enrichment is 0.636 ± 0.087.
